Some of the results follow. The main result of the screen is listed elsewhere. These columns were measured beside it and carry no call.
Assays:
Assay in all cases: Primary Screen for Target Class Profiling of Small Molecule Inhibitors of Methyltransferases
[1] = molecular target: Glycine N-methyltransferase (Homo sapiens) (UniProt Q14749); settings: purified enzyme, MTase-Glo SAH luminescence; measured here: GNMT inhibition; at 40 µM; stronger effect = lower value
Procedure, shortened: (§1)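 Each enzyme was reacted with SAM and its substrate, with compounds tested once at 40 uM; SAH formed was read by MTase-Glo luminescence.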

[2] = molecular target: Guanidinoacetate N-methyltransferase (Homo sapiens) (UniProt Q14353); settings: purified enzyme, MTase-Glo SAH luminescence; measured here: GAMT inhibition; at 40 µM; stronger effect = lower value
Procedure, shortened: as §1

[3] = molecular target: Histamine N-methyltransferase (Homo sapiens) (UniProt P50135); settings: purified enzyme, MTase-Glo SAH luminescence; measured here: HNMT inhibition; at 40 µM; stronger effect = lower value
Procedure, shortened: as §1

[4] = molecular target: Nicotinamide N-methyltransferase (Homo sapiens) (UniProt P40261); settings: purified enzyme, MTase-Glo SAH luminescence; measured here: NNMT inhibition; at 40 µM; stronger effect = lower value
Procedure, shortened: as §1

[5] = molecular target: Phenylethanolamine N-methyltransferase (Homo sapiens) (UniProt P11086); settings: purified enzyme, MTase-Glo SAH luminescence; measured here: PNMT inhibition; at 40 µM; stronger effect = lower value
Procedure, shortened: as §1
On the % scale 0 is the no-effect control and ±100 the full control effect.

| SMILES | activity change, negative = inhibition [1] | activity change, negative = inhibition [2] | activity change, negative = inhibition [3] | activity change, negative = inhibition [4] | activity change, negative = inhibition [5] |
| --- | --- | --- | --- | --- | --- |
| CN1C2CCC1CC(OC(c1ccccc1)c1ccccc1N)C2 (configuration not stated) | 6.26% | 10.4% | -35% | -4.69% | 8.38% |
| CC/C=C/C=C/C1(C)OC(OC)=C(C(=O)C2C(C)C(=O)c3cc(OC)c(O)c(O)c3C2(C)O)C1=O (configuration not stated) | 1.71% | 5.48% | 10.9% | -9.52% | 6.1% |
| O=C(N[C@H]1CN2CCC1CC2)c1cc2cccc(Cl)c2s1 | 5.31% | 13.8% | -6.74% | -7.35% | -5.78% |
| COc1cccc(NC(=O)N2Cc3ccccc3-n3cccc3C2c2cccc(Cl)c2)c1 (configuration not stated) | 6.6% | 1.13% | -2.72% | 0.622% | 6.28% |
| NCCc1c[nH]c2ccccc12 | -6.79% | 1.02% | -81.5% | -10.8% | -12.1% |
| Clc1ccc(N2C[C@H]3CC[C@@H](C2)N3)nn1 | 3.16% | 5.3% | -3.86% | -9.96% | 1.83% |
| CN(C(=O)Cc1ccccc1)C(CN1CCCC1)c1ccccc1 (configuration not stated) | -5.11% |  | -4.66% |  |  |
| O=C(Nc1cccc(Cl)c1)N1Cc2ccccc2-n2cccc2C1c1cccs1 (configuration not stated) | 5.86% | 2.17% | 0.416% | -3.99% | 0.897% |
| Cc1ccc(CNC(=O)N2Cc3ccccc3-n3cccc3C2c2cccc(C)c2)cc1 (configuration not stated) | 10.7% | 0.393% | 9.17% | 10.7% | 8.65% |
| CC(C)[C@H](NC(=O)c1nn(Cc2ccc(F)cc2)c2ccccc12)C(N)=O | -3.98% | -12.9% | -0.361% | -34.4% | -10.2% |
| NCCCCCNC1(c2ccccc2)CCCCC1 | -2.21% | -0.614% | -47.5% | -14.6% | 0.443% |
| CN[C@@H]1C[C@H]2O[C@@](C)([C@@H]1OC)n1c3ccccc3c3c4c(c5c6ccccc6n2c5c31)C(=O)NC4 | -10.3% | -4.25% | -12.7% | -30.6% | -20.3% |
| COC(=O)C1(C)CCC(O)C2(C)c3c(O)cc(C(C)C)cc3C(O)C(OC(C)=O)C12 (configuration not stated) | 0% | 1.22% | 4.51% | -10.8% | 3.91% |
| CC(C)NC(=O)N1Cc2ccccc2-n2cccc2C1c1cc(F)cc(F)c1 (configuration not stated) | 7.59% | 4.83% | 4.14% | -3.02% | 3.89% |
| COc1cccc(CNC(=O)N2Cc3ccccc3-n3cccc3C2c2ccc(F)cc2)c1 (configuration not stated) | -5.2% | 0% | 2.22% | -2.69% | 4.08% |
| CCOc1ccc(C2c3cccn3-c3ccccc3CN2C(=O)Nc2ccccc2CC)cc1 (configuration not stated) | 0.304% | 0% | 11.9% | 8.67% | 7.8% |
| CCOc1ccc(C2c3cccn3-c3ccccc3CN2C(=O)NCc2ccc(C)cc2)cc1 (configuration not stated) | 2.23% | 0% | 8.41% | 9.59% | 11.4% |
| Cc1ccc(C2c3cccn3-c3ccccc3CN2C(=O)NCc2ccccc2)cc1 (configuration not stated) | 1.26% | 2.91% | 0.788% | -3.82% | -1.56% |
| O=C(O)c1cn(Cc2ccc(F)cc2Cl)nn1 | -1.36% | -0.838% | 1.13% | 0.502% | -2.39% |
| CCC1c2cccn2-c2ccccc2CN1C(=O)Nc1ccc(C)c(C)c1 (configuration not stated) | 0.815% | 0.492% | 5.24% | 2.78% | 7.74% |

Source: PubChem BioAssay AID1745853 (National Center for Advancing Translational Sciences (NCATS), 2022)
